Key:
CLR/RAMP1 receptor = CLR/RAMP1 receptor (Homo sapiens, UniProt O60894+Q16602); assay: CLR/RAMP1 cAMP assay, antagonist mode (CGRP-stimulated); format: cell-based; details: for CLR/RAMP1 Max Activity % of positive control (antagonist): antagonist mode
CLR/RAMP2 receptor = CLR/RAMP2 receptor (Homo sapiens, UniProt O60895+Q16602); assay: CLR/RAMP2 arrestin assay, antagonist mode (ADM-stimulated); format: cell-based; details: for CLR/RAMP2 Max Activity % of positive control (antagonist): antagonist mode
Chain of CLR/RAMP2 receptor (Q16602 23-461): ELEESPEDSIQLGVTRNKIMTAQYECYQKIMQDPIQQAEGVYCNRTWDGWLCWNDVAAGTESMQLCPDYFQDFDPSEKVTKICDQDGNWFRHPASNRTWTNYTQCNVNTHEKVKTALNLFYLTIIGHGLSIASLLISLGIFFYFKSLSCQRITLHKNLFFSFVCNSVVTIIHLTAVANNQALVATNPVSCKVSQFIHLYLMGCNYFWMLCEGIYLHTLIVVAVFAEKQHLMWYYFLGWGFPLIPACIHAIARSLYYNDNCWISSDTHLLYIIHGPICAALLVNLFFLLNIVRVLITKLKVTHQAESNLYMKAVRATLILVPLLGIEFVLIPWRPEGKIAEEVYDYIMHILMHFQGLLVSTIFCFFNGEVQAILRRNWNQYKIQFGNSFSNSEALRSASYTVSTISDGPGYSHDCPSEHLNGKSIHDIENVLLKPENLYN
Chain of CLR/RAMP2 receptor (O60895 43-175): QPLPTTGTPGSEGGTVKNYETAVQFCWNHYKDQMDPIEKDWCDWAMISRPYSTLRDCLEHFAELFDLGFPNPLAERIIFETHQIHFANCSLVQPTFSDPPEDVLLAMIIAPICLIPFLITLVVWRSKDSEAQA

Chain of CLR/RAMP1 receptor (Q16602 23-461): as the sequence (Q16602 23-461) above
Chain of CLR/RAMP1 receptor (O60894 27-148): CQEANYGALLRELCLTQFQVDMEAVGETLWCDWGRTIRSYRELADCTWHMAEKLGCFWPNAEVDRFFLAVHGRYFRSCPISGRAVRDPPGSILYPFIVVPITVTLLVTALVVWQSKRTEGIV

| IC50 (CLR/RAMP2 receptor) [µM] | SMILES | antagonistic activity toward CLR/RAMP1 and/or CLR/RAMP2, in words (CLR/RAMP1 receptor; CLR/RAMP1 and/or CLR/RAMP2) | CLR/RAMP1 Max Activity % of positive control (antagonist) (CLR/RAMP1 receptor) | CLR/RAMP2 Max Activity % of positive control (antagonist) (CLR/RAMP2 receptor) |
| --- | --- | --- | --- | --- |
|  | CC[C@H](C)[C@H](NC(=O)[C@H](CCC(N)=O)NC(=O)[C@H](Cc1c[nH]cn1)NC(=O)[C@H](C)NC(=O)[C@H](CC(C)C)NC(=O)[C@H](CCCCN)NC(=O)[C@H](CCC(N)=O)NC(=O)[C@@H](NC(=O)[C@@H](NC(C)=O)[C@@H](C)O)C(C)C)C(=O)N[C@@H](Cc1ccc(O)cc1)C(=O)N[C@@H](CCC(N)=O)C(=O)N[C@@H](Cc1ccccc1)C(=O)N[C@H](C(=O)N[C@@H](CC(=O)O)C(=O)N[C@@H](CCCCN)C(=O)N[C@@H](CC(=O)O)C(=O)N[C@@H](CCCCN)C(=O)N[C@@H](CC(=O)O)C(=O)N[C@@H](CC(N)=O)C(=O)N[C@@H](CO)C(=O)N[C@@H](C)C(=O)N1CCC[C@H]1C(=O)N[C@H](C(=O)N[C@@H](CC(=O)O)C(=O)N1CCC[C@H]1C(=O)N[C@@H](CO)C(=O)N[C@@H](CO)C(=O)N1CCC[C@H]1C(=O)N[C@@H](Cc1c[nH]cn1)C(=O)N[C@@H](CO)C(=O)N[C@@H](Cc1ccc(O)cc1)C(N)=O)C(C)C)[C@@H](C)O [SEQ ID NO: 76] | only mildly improved antagonistic activity | 106 % of positive control | 101 % of positive control |
|  | CCCCCCCCCCCCCCCC(=O)N[C@H](C(=O)N[C@H](C(=O)N[C@@H](CCC(N)=O)C(=O)N[C@@H](CCCCN)C(=O)N[C@@H](CC(C)C)C(=O)N[C@@H](C)C(=O)N[C@@H](Cc1c[nH]cn1)C(=O)N[C@@H](CCC(N)=O)C(=O)N[C@H](C(=O)N[C@@H](Cc1ccc(O)cc1)C(=O)N[C@@H](CCC(N)=O)C(=O)N[C@@H](Cc1ccccc1)C(=O)N[C@H](C(=O)N[C@@H](CC(=O)O)C(=O)N[C@@H](CCCCN)C(=O)N[C@@H](CC(=O)O)C(=O)N[C@@H](CCCCN)C(=O)N[C@@H](CC(=O)O)C(=O)N[C@@H](CC(N)=O)C(=O)N[C@@H](CO)C(=O)N[C@@H](C)C(=O)N1CCC[C@H]1C(=O)N[C@H](C(=O)N[C@@H](CC(=O)O)C(=O)N1CCC[C@H]1C(=O)N[C@@H](CO)C(=O)N[C@@H](CO)C(=O)N1CCC[C@H]1C(=O)N[C@@H](Cc1c[nH]cn1)C(=O)N[C@@H](CO)C(=O)N[C@@H](Cc1ccc(O)cc1)C(N)=O)C(C)C)[C@@H](C)O)[C@@H](C)CC)C(C)C)[C@@H](C)O [SEQ ID NO: 77] |  | 101 % of positive control | 100 % of positive control |
|  | CCCCCCCCCCCCCCCC(=O)NCCCC[C@H](NC(=O)COCCOCCN)C(=O)N[C@H](C(=O)N[C@@H](CCC(N)=O)C(=O)N[C@@H](CCCCN)C(=O)N[C@@H](CC(C)C)C(=O)N[C@@H](C)C(=O)N[C@@H](Cc1c[nH]cn1)C(=O)N[C@@H](CCC(N)=O)C(=O)N[C@H](C(=O)N[C@@H](Cc1ccc(O)cc1)C(=O)N[C@@H](CO)C(=O)N[C@@H](C)C(=O)N1CCC[C@H]1C(=O)N[C@H](C(=O)N[C@@H](CC(=O)O)C(=O)N1CCC[C@H]1C(=O)N[C@@H](CO)C(=O)N[C@@H](CO)C(=O)N1CCC[C@H]1C(=O)N[C@@H](Cc1c[nH]cn1)C(=O)N[C@@H](CO)C(=O)N[C@@H](Cc1ccc(O)cc1)C(N)=O)C(C)C)[C@@H](C)CC)C(C)C [SEQ ID NO: 114] |  | 101 % of positive control | 87 % of positive control |
|  | CC[C@H](C)[C@H](NC(=O)[C@H](CCCCN)NC(=O)[C@H](CO)NC(=O)[C@H](CCCNC(=N)N)NC(=O)[C@@H]1CCCN1C(=O)[C@H](C)NC(=O)[C@@H](NC(=O)[C@H](CC(N)=O)NC(=O)[C@H](CC(=O)O)NC(=O)[C@H](CCCCN)NC(=O)[C@H](CC(=O)O)NC(=O)[C@H](CCCCN)NC(=O)[C@H](CC(=O)O)NC(=O)[C@@H](NC(=O)[C@H](Cc1ccccc1)NC(=O)[C@H](CCCNC(=N)N)NC(=O)[C@H](CO)NC(=O)[C@H](CC(C)C)NC(=O)[C@H](CC(C)C)NC(=O)CNC(=O)[C@H](C)NC(=O)[C@H](CC(C)C)NC(=O)[C@H](CCCNC(=N)N)NC(=O)[C@H](Cc1c[nH]cn1)NC(=O)[C@@H](NC(=O)[C@@H](NC(C)=O)C(C)C)[C@@H](C)O)[C@@H](C)O)C(C)C)C(=O)N[C@@H](CO)C(=O)N1CCC[C@H]1C(=O)N[C@@H](CCC(N)=O)C(=O)NCC(=O)N[C@@H](Cc1ccc(O)cc1)C(N)=O [SEQ ID NO: 115, reference compound] |  | 99 % of positive control | 100 % of positive control |
|  | CC[C@H](C)[C@H](NC(=O)[C@H](CCCCN)NC(=O)[C@H](CO)NC(=O)[C@H](CCCNC(=N)N)NC(=O)[C@@H]1CCCN1C(=O)[C@H](C)NC(=O)[C@@H](NC(=O)[C@H](CC(N)=O)NC(=O)[C@H](CC(=O)O)NC(=O)[C@H](CCCCN)NC(=O)[C@H](CC(=O)O)NC(=O)[C@@H]1CCCN1C(=O)CNC(=O)[C@H](CCSC)NC(=O)[C@H](CC(C)C)NC(=O)[C@H](CCC(N)=O)NC(=O)[C@H](Cc1c[nH]c2ccccc12)NC(=O)[C@H](CC(C)C)NC(=O)[C@H](CCCNC(=N)N)NC(=O)[C@H](Cc1c[nH]cn1)NC(=O)[C@H](C)NC(=O)[C@H](CC(C)C)NC(=O)[C@H](CCCCN)NC(=O)[C@H](CCC(N)=O)NC(=O)[C@@H](NC(=O)[C@@H](NC(C)=O)[C@@H](C)O)C(C)C)C(C)C)C(=O)N[C@@H](CO)C(=O)N1CCC[C@H]1C(=O)N[C@@H](CCC(N)=O)C(=O)NCC(=O)N[C@@H](Cc1ccc(O)cc1)C(N)=O [SEQ ID NO: 116, reference compound] |  | 101 % of positive control | 101 % of positive control |
|  | CCCCCCCCCCCCCCCC(=O)N[C@@H](CCCCN)C(=O)N[C@H](C(=O)N[C@@H](CCC(N)=O)C(=O)N[C@@H](CCCCN)C(=O)N[C@@H](CC(C)C)C(=O)N[C@@H](C)C(=O)N[C@@H](Cc1c[nH]cn1)C(=O)N[C@@H](CCC(N)=O)C(=O)N[C@H](C(=O)N[C@@H](Cc1ccc(O)cc1)C(=O)N[C@@H](CCC(N)=O)C(=O)N[C@@H](Cc1ccccc1)C(=O)N[C@H](C(=O)N[C@@H](CC(=O)O)C(=O)N[C@@H](CCCCN)C(=O)N[C@@H](CC(=O)O)C(=O)N[C@H](C(=O)N[C@@H](C)C(=O)N1CCC[C@H]1C(=O)N[C@@H](CCCNC(=N)N)C(=O)N[C@@H](CO)C(=O)N[C@@H](CCCCN)C(=O)N[C@H](C(=O)N[C@@H](CO)C(=O)N1CCC[C@H]1C(=O)N[C@@H](CCC(N)=O)C(=O)NCC(=O)N[C@@H](Cc1ccc(O)cc1)C(N)=O)[C@@H](C)CC)C(C)C)[C@@H](C)O)[C@@H](C)CC)C(C)C [SEQ ID NO: 119] |  | 95 % of positive control | 101 % of positive control |
|  | CCCCCCCCCCCCCCCC(=O)N[C@@H](CCCCN)C(=O)N[C@H](C(=O)N[C@@H](CCC(N)=O)C(=O)N[C@@H](CC(N)=O)C(=O)N[C@@H](CC(C)C)C(=O)N[C@@H](CO)C(=O)N[C@@H](Cc1c[nH]cn1)C(=O)N[C@@H](CCCNC(=N)N)C(=O)N[C@@H](CC(C)C)C(=O)N[C@@H](Cc1c[nH]c2ccccc12)C(=O)N[C@@H](CCC(N)=O)C(=O)N[C@@H](CC(C)C)C(=O)N[C@@H](CCSC)C(=O)NCC(=O)N1CCC[C@H]1C(=O)N[C@@H](C)C(=O)NCC(=O)N[C@@H](CO)C(=O)N[C@@H](C)C(=O)N1CCC[C@H]1C(=O)N[C@H](C(=O)N[C@@H](CC(=O)O)C(=O)N1CCC[C@H]1C(=O)N[C@@H](CO)C(=O)N[C@@H](CO)C(=O)N1CCC[C@H]1C(=O)N[C@@H](Cc1c[nH]cn1)C(=O)N[C@@H](CO)C(=O)N[C@@H](Cc1ccc(O)cc1)C(N)=O)C(C)C)C(C)C [SEQ ID NO: 120] |  | 94 % of positive control | 98 % of positive control |
|  | CCCCCCCCCCCCCCCC(=O)N[C@@H](CCCCN)C(=O)N[C@H](C(=O)N[C@@H](CCC(N)=O)C(=O)N[C@@H](CCCCN)C(=O)N[C@@H](CC(C)C)C(=O)N[C@@H](C)C(=O)N[C@@H](Cc1c[nH]cn1)C(=O)N[C@@H](CCC(N)=O)C(=O)N[C@H](C(=O)N[C@@H](Cc1ccc(O)cc1)C(=O)N[C@@H](CO)C(=O)N[C@@H](C)C(=O)N1CCC[C@H]1C(=O)N[C@H](C(=O)N[C@@H](CC(=O)O)C(=O)N1CCC[C@H]1C(=O)N[C@@H](CO)C(=O)N[C@@H](CO)C(=O)N1CCC[C@H]1C(=O)N[C@@H](Cc1c[nH]cn1)C(=O)N[C@@H](CO)C(=O)N[C@@H](Cc1ccc(O)cc1)C(N)=O)C(C)C)[C@@H](C)CC)C(C)C [SEQ ID NO: 122] |  | 95 % of positive control | 100 % of positive control |
|  | CCCCCCCCCCCCCCCC(=O)N[C@@H](CCCCN)C(=O)N[C@H](C(=O)N[C@@H](CCC(N)=O)C(=O)N[C@@H](CCCCN)C(=O)N[C@@H](CC(C)C)C(=O)N[C@@H](C)C(=O)N[C@@H](Cc1c[nH]cn1)C(=O)N[C@@H](CCC(N)=O)C(=O)N[C@H](C(=O)N[C@@H](CO)C(=O)N[C@@H](C)C(=O)N1CCC[C@H]1C(=O)N[C@H](C(=O)N[C@@H](CC(=O)O)C(=O)N1CCC[C@H]1C(=O)N[C@@H](CO)C(=O)N[C@@H](CO)C(=O)N1CCC[C@H]1C(=O)N[C@@H](Cc1c[nH]cn1)C(=O)N[C@@H](CO)C(=O)N[C@@H](Cc1ccc(O)cc1)C(N)=O)C(C)C)[C@@H](C)CC)C(C)C [SEQ ID NO: 123] |  | 94 % of positive control | 101 % of positive control |
|  | CCCCCCCCCCCCCCCC(=O)N[C@@H](CCCCN)C(=O)N[C@H](C(=O)N[C@@H](CCC(N)=O)C(=O)N[C@@H](CCCCN)C(=O)N[C@@H](CC(C)C)C(=O)N[C@@H](CO)C(=O)N[C@@H](C)C(=O)N1CCC[C@H]1C(=O)N[C@H](C(=O)N[C@@H](CC(=O)O)C(=O)N1CCC[C@H]1C(=O)N[C@@H](CO)C(=O)N[C@@H](CO)C(=O)N1CCC[C@H]1C(=O)N[C@@H](Cc1c[nH]cn1)C(=O)N[C@@H](CO)C(=O)N[C@@H](Cc1ccc(O)cc1)C(N)=O)C(C)C)C(C)C [SEQ ID NO: 139] |  |  | 101 % of positive control |
| > 10 | CCCCCCCCCCCCCCCC(=O)N[C@@H](CCCCN)C(=O)N[C@H](C(=O)N[C@@H](CCC(N)=O)C(=O)N[C@@H](CC(N)=O)C(=O)N[C@@H](CC(C)C)C(=O)N[C@@H](CO)C(=O)N[C@@H](C)C(=O)N1CCC[C@H]1C(=O)N[C@H](C(=O)N[C@@H](CC(=O)O)C(=O)N1CCC[C@H]1C(=O)N[C@@H](CO)C(=O)N[C@@H](CO)C(=O)N1CCC[C@H]1C(=O)N[C@@H](Cc1c[nH]cn1)C(=O)N[C@@H](CO)C(=O)N[C@@H](Cc1ccc(O)cc1)C(N)=O)C(C)C)C(C)C [SEQ ID NO: 141] |  |  |  |

Source: patent publication US20250154219A1, “PEPTIDE ANALOGS” (Adepthera LLC, priority 2017, published 2025)
